According to the supplement of paper PMC4967469:
The IC50 comes from the fitted curve, where viability falls to half of the control; a fit beyond the top or the lowest dose is shown as a bound at that dose. AUC, from the same fit, is the share of area under the viability curve across the 256-fold dose range; the more sensitive the line, the further below 1. For some of these results: The top dose, if marked as inferred, comes from the curve model; the source does not state it. For some of these results: An entry number marks a drug with two screens in the source, which often give different values.

Experiments:
Test in all cases: Viability of human cancer cell lines after 72 h of drug (GDSC screen)
Parthenolide = compound: C=C1C(=O)O[C@H]2[C@H]1CC/C(C)=C/CC[C@@]1(C)O[C@@H]21 [Parthenolide]; conditions: top dose 5 µM
Experimental: (§1)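 Human cancer cell lines in 384-well plates, medium with 10% serum, drug for 72 h over a 256-fold dose range (nine 2-fold or five 4-fold steps up to the top dose). Adherent lines were fixed and stained with the nucleic acid dye Syto60, suspension lines read with resazurin; signal relative to control wells, capped at 0 and 100%. One two-parameter sigmoid per drug and line, fitted in a mixed model over all curves with the slope shared within a line.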

BMS-708163 = compound: NC(=O)[C@@H](CCC(F)(F)F)N(Cc1ccc(-c2ncon2)cc1F)S(=O)(=O)c1ccc(Cl)cc1 [BMS-708163]; conditions: top dose 5 µM; screen: GDSC drug entry 1072; top dose inferred
Experimental: as §1

KIN001-135 = compound: COc1cc2ncn(-c3cc(OCc4ccccc4S(C)(=O)=O)c(C#N)s3)c2cc1OC [KIN001-135]; conditions: top dose 5 µM; top dose inferred
Experimental: as §1

PAC-1 = compound: C=CCc1cccc(/C=N/NC(=O)CN2CCN(Cc3ccccc3)CC2)c1O [PAC-1]; conditions: top dose 2.56 µM
Experimental: as §1

| Cell Line | AUC (Parthenolide) | IC50 (Parthenolide) [µM] | AUC (BMS-708163) | IC50 (BMS-708163) [µM] | AUC (KIN001-135) | IC50 (KIN001-135) [µM] | AUC (PAC-1) | IC50 (PAC-1) [µM] |
| --- | --- | --- | --- | --- | --- | --- | --- | --- |
| 8-MG-BA (glioma, adherent) | 0.88 | 4.64 | 0.985 | > 5 | 0.988 | > 5 | 0.988 | > 2.56 |
| 697 (lymphoblastic leukaemia, suspension) | 0.6 | 0.555 | 0.991 | > 5 | 0.985 | > 5 | 0.731 | 0.616 |
| A3-KAW (B-cell lymphoma, suspension) | 0.81 | 2 | 0.993 | > 5 | 0.992 | > 5 | 0.89 | 1.91 |
| A4-Fuk (B-cell lymphoma, suspension) | 0.918 | > 5 | 0.978 | > 5 | 0.986 | > 5 | 0.912 | > 2.56 |
| A101D (melanoma, adherent) | 0.912 | > 5 | 0.968 | > 5 | 0.975 | > 5 | 0.868 | > 2.56 |
| A253 (head and neck, adherent) | 0.989 | > 5 | 0.973 | > 5 | 0.989 | > 5 | 0.977 | > 2.56 |
| A388 (skin, adherent) | 0.872 | > 5 | 0.908 | > 5 | 0.975 | > 5 | 0.978 | > 2.56 |
| A498 (kidney, adherent) | 0.975 | > 5 | 0.979 | > 5 | 0.979 | > 5 | 0.957 | > 2.56 |
| ALL-PO (lymphoblastic leukaemia, suspension) | 0.906 | > 5 | 0.983 | > 5 | 0.977 | > 5 | 0.853 | 2.17 |
| ALL-SIL (T-cell leukaemia, suspension) | 0.787 | 1.85 | 0.974 | > 5 | 0.989 | > 5 | 0.675 | 0.455 |
| AM-38 (glioma, semi-adherent) | 0.976 | > 5 | 0.984 | > 5 | 0.988 | > 5 | 0.963 | > 2.56 |
| AMO-1 (haematopoietic neoplasm, suspension) | 0.99 | > 5 | 0.99 | > 5 | 0.991 | > 5 | 0.835 | 1.36 |
| ARH-77 (myeloma, suspension) | 0.934 | > 5 | 0.988 | > 5 | 0.972 | > 5 | 0.849 | 1.82 |
| ATN-1 (T-cell lymphoblastic leukaemia, suspension) | 0.971 | > 5 | 0.977 | > 5 | 0.981 | > 5 | 0.97 | > 2.56 |
| BB30-HNC (head and neck, adherent) | 0.883 | > 5 | 0.929 | > 5 | 0.98 | > 5 | 0.966 | > 2.56 |
| BB65-RCC (kidney, adherent) | 0.825 | 3.63 | 0.978 | > 5 | 0.983 | > 5 | 0.947 | > 2.56 |
| BC-1 (B-cell lymphoma, suspension) | 0.901 | 4.8 | 0.991 | > 5 | 0.99 | > 5 | 0.793 | 0.979 |
| BE2-M17 (neuroblastoma, adherent) | 0.977 | > 5 | 0.98 | > 5 | 0.987 | > 5 | 0.987 | > 2.56 |
| BE-13 (lymphoblastic leukaemia, suspension) | 0.987 | > 5 | 0.982 | > 5 | 0.987 | > 5 | 0.884 | 2.45 |
| BL-41 (Burkitt lymphoma, suspension) | 0.877 | 3.05 | 0.99 | > 5 | 0.993 | > 5 | 0.84 | 1.19 |

| Cell Line | AUC (Parthenolide) | IC50 (Parthenolide) [µM] | AUC (BMS-708163) | IC50 (BMS-708163) [µM] | AUC (KIN001-135) | IC50 (KIN001-135) [µM] | AUC (PAC-1) | IC50 (PAC-1) [µM] |
| --- | --- | --- | --- | --- | --- | --- | --- | --- |
| BT-474 (breast, adherent) | 0.986 | > 5 | 0.918 | > 5 | 0.979 | > 5 | 0.957 | > 2.56 |
| BV-173 (chronic myeloid leukaemia, suspension) | 0.956 | > 5 | 0.989 | > 5 | 0.982 | > 5 | 0.913 | > 2.56 |
| Becker (glioma, adherent) | 0.972 | > 5 | 0.979 | > 5 | 0.984 | > 5 | 0.984 | > 2.56 |
| C2BBe1 (large intestine, adherent) | 0.947 | > 5 | 0.984 | > 5 | 0.986 | > 5 | 0.911 | > 2.56 |
| CA46 (Burkitt lymphoma, suspension) | 0.976 | > 5 | 0.985 | > 5 | 0.981 | > 5 | 0.879 | > 2.56 |
| CESS (acute myeloid leukaemia, suspension) | 0.921 | > 5 | 0.989 | > 5 | 0.991 | > 5 | 0.808 | 1.1 |
| CGTH-W-1 (thyroid, adherent) | 0.987 | > 5 | 0.975 | > 5 | 0.986 | > 5 | 0.977 | > 2.56 |
| CHP-126 (neuroblastoma, suspension) | 0.881 | > 5 | 0.984 | > 5 | 0.986 | > 5 | 0.773 | 1.03 |
| CL-11 (large intestine, adherent) | 0.983 | > 5 | 0.981 | > 5 | 0.985 | > 5 | 0.961 | > 2.56 |
| CMK (acute myeloid leukaemia, suspension) | 0.886 | 4.06 | 0.989 | > 5 | 0.989 | > 5 | 0.85 | 1.51 |
| COLO-320-HSR (large intestine, suspension) | 0.913 | > 5 | 0.984 | > 5 | 0.991 | > 5 | 0.949 | > 2.56 |
| COLO-668 (small cell lung carcinoma, adherent) | 0.989 | > 5 | 0.842 | 3.52 | 0.971 | > 5 | 0.825 | 1.53 |
| COLO-684 (endometrium, suspension) | 0.985 | > 5 | 0.985 | > 5 | 0.984 | > 5 | 0.882 | > 2.56 |
| COLO-800 (melanoma, adherent) | 0.984 | > 5 | 0.987 | > 5 | 0.97 | > 5 | 0.984 | > 2.56 |
| COLO-824 (breast, adherent) | 0.988 | > 5 | 0.978 | > 5 | 0.972 | > 5 | 0.897 | > 2.56 |
| COLO-829 (melanoma, adherent) | 0.897 | > 5 | 0.884 | > 5 | 0.974 | > 5 | 0.971 | > 2.56 |
| COR-L88 (small cell lung carcinoma, adherent) | 0.986 | > 5 | 0.984 | > 5 | 0.978 | > 5 | 0.696 | 0.639 |
| COR-L95 (small cell lung carcinoma, adherent) | 0.92 | > 5 | 0.987 | > 5 | 0.986 | > 5 | 0.967 | > 2.56 |
| COR-L279 (small cell lung carcinoma, suspension) | 0.974 | > 5 | 0.991 | > 5 | 0.99 | > 5 | 0.977 | > 2.56 |
| CP66-MEL (melanoma, adherent) | 0.973 | > 5 | 0.975 | > 5 | 0.985 | > 5 | 0.981 | > 2.56 |

| Cell Line | AUC (Parthenolide) | IC50 (Parthenolide) [µM] | AUC (BMS-708163) | IC50 (BMS-708163) [µM] | AUC (KIN001-135) | IC50 (KIN001-135) [µM] | AUC (PAC-1) | IC50 (PAC-1) [µM] |
| --- | --- | --- | --- | --- | --- | --- | --- | --- |
| CPC-N (small cell lung carcinoma, suspension) | 0.985 | > 5 | 0.971 | > 5 | 0.962 | > 5 | 0.982 | > 2.56 |
| CTB-1 (B-cell lymphoma, suspension) | 0.865 | > 5 | 0.979 | > 5 | 0.959 | > 5 | 0.819 | 2.21 |
| CTV-1 (acute myeloid leukaemia, suspension) | 0.936 | > 5 | 0.99 | > 5 | 0.99 | > 5 | 0.821 | 1.11 |
| CW-2 (large intestine, adherent) | 0.989 | > 5 | 0.989 | > 5 | 0.986 | > 5 | 0.988 | > 2.56 |
| D-263MG (glioma, adherent) | 0.983 | > 5 | 0.976 | > 5 | 0.971 | > 5 | 0.95 | > 2.56 |
| D-283MED (medulloblastoma, adherent) | 0.973 | > 5 | 0.958 | > 5 | 0.985 | > 5 | 0.99 | > 2.56 |
| D-392MG (glioma, adherent) | 0.953 | > 5 | 0.896 | > 5 | 0.976 | > 5 | 0.977 | > 2.56 |
| D-502MG (glioma, adherent) | 0.945 | > 5 | 0.847 | > 5 | 0.974 | > 5 | 0.937 | > 2.56 |
| D-542MG (glioma, adherent) | 0.94 | > 5 | 0.984 | > 5 | 0.97 | > 5 | 0.877 | > 2.56 |
| DEL (lymphoid neoplasm, suspension) | 0.79 | 1.73 | 0.986 | > 5 | 0.993 | > 5 | 0.927 | > 2.56 |
| DG-75 (Burkitt lymphoma, suspension) | 0.96 | > 5 | 0.969 | > 5 | 0.975 | > 5 | 0.955 | > 2.56 |
| DJM-1 (skin, adherent) | 0.896 | > 5 | 0.982 | > 5 | 0.982 | > 5 | 0.989 | > 2.56 |
| DMS-79 (small cell lung carcinoma, suspension) | 0.987 | > 5 | 0.987 | > 5 | 0.97 | > 5 | 0.972 | > 2.56 |
| SCC-3 (B-cell lymphoma, suspension) | 0.834 | 2.08 |  |  | 0.992 | > 5 | 0.996 | > 2.56 |
| SIG-M5 (acute myeloid leukaemia, suspension) | 0.962 | > 5 |  |  | 0.994 | > 5 | 0.782 | 0.805 |
| SU-DHL-1 (anaplastic large cell lymphoma, suspension) | 0.997 | > 5 |  |  | 0.994 | > 5 | 0.997 | > 2.56 |
| SU-DHL-8 (B-cell lymphoma, suspension) | 0.793 | 2.11 |  |  | 0.953 | > 5 | 0.739 | 0.728 |
| TALL-1 (T-cell lymphoblastic leukaemia, suspension) | 0.944 | > 5 |  |  | 0.982 | > 5 | 0.983 | > 2.56 |
| TE-441-T (rhabdomyosarcoma, adherent) | 0.974 | > 5 |  |  | 0.969 | > 5 | 0.979 | > 2.56 |
| UACC-812 (breast, adherent) | 0.991 | > 5 |  |  | 0.983 | > 5 | 0.991 | > 2.56 |
